Test results: PubChem BioAssay AID1508642 (National Center for Advancing Translational Sciences (NCATS), 2021)
Among all 43,000 compounds or so, about 200 (0.47%) were called active. About 12% were inconclusive and are not listed. Calls come from the whole dose curve; as a rule, active = well fitted cell-killing curve with a large enough effect; inconclusive = small, poorly fitted or top-dose-only effect, or effect the other way; inactive = flat fitted curve, though single readings scatter. The list shows a part of the results.

Experiment: Cell viability qHTS assay in S16 Pmp22-F2sN cells; note: nearly all actives have a fitted effect of over 65% in size
Details: S16 Pmp22-F2sN Schwann cells viability, CellTiter-Glo, 24 h; series mostly up to 57.5 µM; activity change, negative = cytotoxicity: at the top concentration
Method in brief: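 Used to flag compounds lowering reporter output through toxicity, this quantitative HTS measures ATP-based CellTiter-Glo luminescence in S16 Pmp22-F2sN Schwann cells after 24 h compound exposure at 37C.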
% is set by controls: 0 for no effect and ±100 for the full control effect.

Compound | activity change, negative = cytotoxicity
CC(C)Oc1ccccc1C1C=C(C(=O)O)Nc2ncnn21 (stereo not given) | inactive: 23.1%
COc1cc2c(=O)n(Cc3ccccc3Cl)c(=O)n(CC(=O)Nc3ccc(C)c(C)c3)c2cc1OC | inactive: 24.1%
Cc1cccc(C(=O)Nc2cc(-c3nc4cccnc4s3)ccc2C)c1 | inactive: 0.856%
COc1ccc(C)cc1NC(=O)C1CCN(S(=O)(=O)c2ccc3[nH]c(=O)oc3c2)CC1 | inactive: -3.2%
Cc1ccc2c(c1)C(Cc1ccccc1F)C(=O)N2 (stereo not given) | inactive: -1.44%
COc1ccc(CCNC(=O)C(CC(C)C)N2Cc3ccccc3C2=O)c(OC)c1OC (stereo not given) | inactive: -2.36%
CCn1cc(CCC(=O)NCc2ccc(C)cc2)c2ccccc21 | inactive: 4.73%
CCCCC(=O)NCc1nc2cccnc2n1Cc1ccc(OC)cc1 | inactive: 3.49%
COc1cccc(Nc2ccc3cc(S(=O)(=O)N4CCC(C)CC4)ccc3n2)c1 | inactive: -25%
CCCOc1cccc(C(=O)Nc2cccc(-c3nc4ncccc4o3)c2C)c1 | inactive: -6.16%
CCC1CN(C(=O)N2CCC(C(=O)NCc3ccc(N(C)C)cc3)CC2)c2ccccc2O1 (stereo not given) | inactive: -4.66%
COc1ccc(-c2oc3ncn4nc(-c5ccccc5O)nc4c3c2-c2ccc(OC)cc2)cc1 | inactive: -2.38%
Cc1ccccc1-c1nc2scc(CCNS(=O)(=O)c3ccccc3)n2n1 | inactive: 2.03%
Cc1nn2c(=O)cc(COC(=O)c3cccc(NC(=O)CCc4ccccc4)c3)nc2s1 | inactive: 10.3%
Cc1cn2c(=O)cc(COC(=O)c3cccc(NC(=O)c4ccc(C(C)(C)C)cc4)c3)nc2s1 | inactive: 8.89%
CCn1cc2nc(SCC(=O)Nc3ccc(OC)c(OC)c3)n(Cc3ccc(Cl)cc3)c(=O)c2n1 | inactive: 14.5%
CC(=O)c1cccc(NC(=O)C2CCN(C(=O)c3cnn(-c4ccccc4)c3-n3cccc3)CC2)c1 | inactive: -9.13%
Cc1c(C(=O)NCc2ccccc2Cl)sc2nc3n(c(=O)c12)CCCCC3 | inactive: 2.62%
CCOc1ccc(NC(=O)C2CC(=O)NC(=Nc3ccc(Cl)c(Cl)c3)S2)cc1 (stereo not given) | inactive: 3.68%
Cc1c(C(=O)NCc2ccccc2)sc2nc3n(c(=O)c12)CCCCC3 | inactive: 1.06%
COc1cccc(CNC(=O)c2sc3nc(C)cc(C)c3c2-n2cccc2)c1OC | inactive: -17.2%
CCOC(=O)c1ccc(NC(=O)C2CCCN(c3ncnc4onc(-c5ccc(F)cc5)c34)C2)cc1 (stereo not given) | inactive: 0.491%
Cc1ccc(OCC(=O)Nc2cccc(-c3nc4ccccc4s3)c2)cc1 | inactive: 0.9%
Cc1nn(S(=O)(=O)c2ccc(C(C)(C)C)cc2)c(C)c1S(=O)(=O)N1CCCCCC1 | inactive: 0.915%

Compound | activity change, negative = cytotoxicity
Cc1ccc(-c2n[nH]c3c2C(c2ccc(C(C)(C)C)cc2)NC3=O)cc1 (stereo not given) | inactive: -0.221%
COCCNC(=O)CCn1c(=O)c2cc(OC)c(OC)cc2n(CC(=O)Nc2ccc(Cl)cc2F)c1=O | inactive: -12.4%
Cc1ccc(NC(=O)c2oc3ccc(S(=O)(=O)N4CCC5(CC4)OCCO5)cc3c2C)cc1C | inactive: -2.41%
Cc1ccc(Cl)cc1N1CCN(C(=O)c2ccc(NC(=O)c3nsc4ccccc34)cc2)CC1 | inactive: -3.27%
CCOC(=O)COc1ccc(CC)cc1C(=O)c1ccn2nc(-c3ccccc3)cc2n1 | inactive: 19.5%
COC(=O)c1sccc1S(=O)(=O)N1CCN(c2cc(Cl)ccc2C)CC1 | inactive: 8.45%
COC(=O)C(Cc1c[nH]c2ccccc12)NC(=O)COc1cccc(C)c1 (stereo not given) | inactive: 2.54%
O=C(COc1ccccc1F)Nc1ccc2oc(-c3cccc(Cl)c3)nc2c1 | inactive: 5.88%
Cc1cccc(CN2C(=O)N(c3ccc(C(C)C)cc3)S(=O)(=O)c3ccccc32)c1 | inactive: 5.22%
Cc1ccc(-c2ccc(=O)n(CC(=O)Nc3ccc(C)cc3Cl)n2)cc1 | inactive: -13.1%
COc1ccccc1-c1nc(SCC(=O)NCc2ccc(C)cc2)c2c(=O)n(C)c(=O)n(C)c2n1 | inactive: -5.67%
Clc1cccc(N2CCN(c3nc4ccccc4n4nnnc34)CC2)c1 | inactive: -7.62%
COc1ccc(C(=O)Nc2ccc3oc(-c4cccnc4)nc3c2)cc1 | inactive: 0.269%
COc1ccc(C2C=C(c3ccccc3)Nc3nc(NC(=O)c4cccc([N+](=O)[O-])c4)nn32)cc1 (stereo not given) | inactive: -5.3%
COc1cccc(/C=C/c2nc(C#N)c(NCCc3ccccc3)o2)c1 | inactive: -1.34%
COc1cccc(CNS(=O)(=O)c2ccc3c(c2)CCN3C(=O)C2CCC2)c1 | inactive: 17.5%
O=C(Nc1ccc(F)cc1)N1CCN(c2ccccc2F)CC1 | inactive: 0.355%
Cc1nn2c(=O)cc(COC(=O)c3ccco3)nc2s1 | inactive: 28.7%
O=C(NCc1cccs1)c1ccc(Cn2c(SCc3ccccc3)nc3cccnc32)cc1 | inactive: 5.53%
O=C(Nc1c(C(=O)N2CCN(c3ccccc3)CC2)oc2ccccc12)c1ccc(Br)o1 | inactive: -2.78%
Cc1cc(Cl)ccc1OCC(=O)Nc1c(Cl)ccc2nsnc12 | inactive: -14.1%
Cc1cc(=O)[nH]c2nnc(SCc3ccc(F)cc3)n12 | inactive: -6.16%
COc1ccc(N2C(=O)CS(=O)(=O)C23C(=O)N(Cc2cccc(F)c2)c2ccccc23)cc1OC (stereo not given) | inactive: 1.84%
O=C(CC(c1cccs1)N1Cc2ccccc2C1=O)Nc1ccc(F)c(F)c1 (stereo not given) | inactive: -1.16%

Compound | activity change, negative = cytotoxicity
Cc1ccc(C)c(S(=O)(=O)c2nnn3c2nc(Nc2ccc(C)c(C)c2)c2sccc23)c1 | inactive: 23.8%
COc1ccc(Cn2c(SCC(=O)NCc3ccc(Cl)cc3)nc3ccsc3c2=O)cc1 | inactive: 8.96%
CCOC(=O)c1ccc(-n2c(CCC(=O)O)ccc2-c2ccc(Br)cc2)cc1 | inactive: 9.78%
COc1ccc2nc3oc(C(=O)N4CCN(c5cc(C)ccc5C)CC4)cc3cc2c1 | inactive: -16.7%
CCC(=O)N1CCc2cc(S(=O)(=O)CCC(=O)Nc3ccc(OC(F)(F)F)cc3)ccc21 | inactive: -16%
COc1ccccc1N1CCN(C(=O)C(CCSC)NS(=O)(=O)c2ccc3c(c2)oc(=O)n3C)CC1 (stereo not given) | inactive: 2.17%
CC(C)Oc1ccc(CNC(=O)CCCN2C(=O)CCn3nc(-c4cccn4C)cc32)cc1 | inactive: -15.9%
CCc1ccc(NCc2cc3ccc(OC)cc3n(CC(=O)Nc3ccc(F)cc3F)c2=O)cc1 | inactive: 27.3%
CCC(=O)N1c2ccccc2CC1C(=O)N1CCN(c2cccc(Cl)c2)CC1 (stereo not given) | inactive: 7.87%
O=C(c1ccco1)n1nc(-c2ccccc2)nc1NCc1ccc(Cl)cc1 | inactive: -3.72%
Cc1nn(-c2ccccc2)c2c1N(CCCC(=O)NCc1ccc(N(C)C)cc1)C(=O)CS2 | inactive: 9.08%
Cc1ccc(-c2nc(-c3cc4c([nH]c3=O)CC(C)(C)CC4=O)sc2C)cc1 | inactive: 17.6%
CCCCSc1nc(-c2ccc(OC)cc2)ccc1C#N | inactive: -1.16%
COC(=O)c1ccccc1NC(=O)Cn1c(CCC(=O)O)ccc1-c1cccs1 | inactive: -2.58%
Cc1cccc(-c2nc(C)c(CCNC(=O)C(=O)Nc3cccc(Cl)c3C)s2)c1 | inactive: 9.98%
O=C(Cn1cc(SCc2ccc(C(F)(F)F)cc2)c2ccccc21)N1CCOCC1 | inactive: -4.73%
COC(=O)CSc1ncc2c(n1)-c1ccccc1N(Cc1ccccc1C)S2(=O)=O | inactive: 2.05%
CC(=O)c1ccc(NC(=O)CN2C(=O)CCc3ccccc32)cc1 | inactive: -11.3%
Cc1ccc(Cn2cc(CCC(=O)NC3CCC(C)CC3)c3ccccc32)cc1 (stereo not given) | inactive: 11.6%
CC1CCC(Nc2nc3c(-c4ccc(Cl)cc4)nnn3c3ccccc23)CC1 (stereo not given) | inactive: 2.06%
Cc1ccc2occ(CC(=O)N(Cc3ccccc3Cl)C3CCS(=O)(=O)C3)c2c1 (stereo not given) | inactive: 2.33%
CCOC(=O)c1cccc(NC(=O)NCc2cccn2Cc2ccccc2)c1 | inactive: -24.3%
Cn1c(=O)oc2cc(S(=O)(=O)N3CCCC(C(=O)NCCc4ccc(Cl)cc4)C3)ccc21 (stereo not given) | inactive: 4.24%
COc1ccccc1CNS(=O)(=O)c1ccc2c(c1)NC(=O)C(C)C(=O)N2 (stereo not given) | inactive: 0.38%

Compound | activity change, negative = cytotoxicity
CC(=O)Nc1ccc(/C=C/c2nc(-c3ccccc3O)n(-c3ccccc3)n2)cc1 | inactive: 16.9%
CCC(=O)N1CCc2cc(Br)cc(S(=O)(=O)N3CCN(c4ccc(C)cc4)C(C)C3)c21 (stereo not given) | inactive: 13.2%
CCOC(=O)c1c(C)[nH]c(C)c1S(=O)(=O)N1CCC(C(=O)N2CCN(c3ccccc3)CC2)CC1 | inactive: 5.1%
O=C(NCc1ccccc1Cl)C1CCCN(S(=O)(=O)c2cccc3nsnc23)C1 (stereo not given) | inactive: -11.5%
COc1ccc(OC)c(CNC(=O)c2c3c(nc4ccccc24)C(=O)N(C2CCCCC2)C3)c1 | inactive: -1.53%
CCOC(=O)c1c(C)[nH]c(C)c1S(=O)(=O)N1CCC(C(=O)N2CCN(c3cccc(Cl)c3)CC2)CC1 | inactive: -5%
Cc1ccccc1-c1noc(-c2cccnc2NCc2ccco2)n1 | inactive: 0.629%
COc1ccc(OCC(=O)NC2CC(=O)N(c3cccc(OC)c3)C2)cc1 (stereo not given) | inactive: 3.65%
CCOC(=O)c1c(S(=O)(=O)N2CCC(C(=O)NCc3ccc(F)cc3)CC2)c(C)n(C)c1C | inactive: -16.5%
Cc1cccc(N(C)C(=O)CCS(=O)(=O)c2ccc3c(c2)oc(=O)n3C)c1 | inactive: -9.53%
COc1ccc(NC(=O)CN2CCN(Cc3ccc(F)cc3)S2(=O)=O)cc1Cl | inactive: -19%
COc1ccc(NC(=O)c2cc(S(=O)(=O)N3CCCCCC3)cn2C)c(OC)c1 | inactive: 26.1%
Cc1cccc(C)c1NC(=O)NCCc1c[nH]c2ccccc12 | inactive: 4%
CCCNC(=O)C1CCC(Cn2c(=O)c3sccc3n(Cc3ccccc3F)c2=O)CC1 (stereo not given) | inactive: -1.73%
COCCCn1c(=N)c(C(=O)NCc2ccco2)cc2c(=O)n3ccccc3nc21 | inactive: -2.16%
Cc1ccc(-n2c3nc(=O)[nH]c(=O)c-3cc3c(C)nn(-c4ccccc4)c32)cc1Cl | inactive: -5.67%
O=C(NC1CCCCC1)c1ccc(Cn2c(SCc3ccc(F)cc3)nc3cccnc32)cc1 | inactive: -8.39%
Cc1ccc2c(c1)-c1onc(C(=O)N3CCN(c4ccc(Cl)cc4)CC3)c1CO2 | inactive: 0.998%
O=S(=O)(c1ccccc1)c1nnn2c1nc(NCc1ccc(F)cc1)c1sccc12 | inactive: -9.28%
Brc1ccc(-c2nc3ccccn3c2Nc2ccc3c(c2)OCCO3)o1 | inactive: -20.3%
CCCCN(CC)C(=O)CSc1nc2n[nH]c(C)c2c(=N)n1-c1cccc(OC)c1 | inactive: -27.8%
Cc1oc(-c2ccc(Cl)cc2)nc1CS(=O)CC(=O)N1CCN(c2cccc(C(F)(F)F)c2)CC1 (stereo not given) | inactive: -27.8%
COc1ccccc1CNC(=O)CCn1nc(C)c2c(C)n(-c3ccccc3)nc2c1=O | inactive: -7.88%
